Experimental data published in PubChem BioAssay AID686979 (National Center for Advancing Translational Sciences (NCATS), 2013).
About 50,000 (12%) of roughly 420,000 compounds were called active. This list was built around the results that the source calls inconclusive (neither active nor inactive); the mix of calls is not that of the screen. Calls follow the shape of the dose curve; as a rule, active = well fitted inhibition curve with a large enough effect; inconclusive = small, poorly fitted or top-dose-only effect; inactive = flat fitted curve, though single readings scatter. No potency is given beside an inconclusive call; the fits are too rough.
% is scaled to controls: 0 for no effect and ±100 for the full control effect; potency is read from the fitted curve at half-maximal effect; tags tell the direction and shape of the fitted curve.

Assay: qHTS for Inhibitors of human tyrosyl-DNA phosphodiesterase 1 (TDP1): qHTS in cells in presence of CPT; also: nearly all actives have a fitted effect of over 55% in size
Settings: chicken DT40 Tdp1-/-;hTDP1 cells + 20 nM CPT, ATP luminescence, 48 h; activity change, negative = growth inhibition: at 46.2 µM (top of the series) unless noted
Summary of the method: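 Chicken DT40 Tdp1-/- cells complemented with human TDP1, 400 cells/well, exposed to compounds plus 20 nM camptothecin for at least 48 h at 37 C; viability read as ATP content by CellTiter-Glo luminescence.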
In the case of Cc1cnc(C(=O)Nc2cccc(-c3nnc4n3CCCCC4)c2)cn1, the Potency is reported as “inactive”. In the case of CSc1ccc(CNC(=O)C(C)n2nc(C)c3c(C)n(-c4ccccc4)nc3c2=O)cc1 (stereo not given), the Potency is reported as inconclusive [inhibitor, single point]. In the case of O=c1c2sc3ccccc3c2n(Cc2cccc(F)c2)c(=O)n1CCc1ccccc1, the Potency is reported as inconclusive [inhibitor, single point]. For CCN(CC)C(=O)Cn1c(=O)n(CCCCCC(=O)NCc2ccc3c(c2)OCO3)c(=O)c2sccc21, the Potency was inconclusive [inhibitor, single point]. For CC(=O)Nc1nc(-c2ccccc2)c(-c2ccccc2)s1, the Potency was inconclusive [inhibitor, single point]. In the case of Cc1cc(NC(=O)CNCC(c2ccccc2)N(C)C)c([N+](=O)[O-])cc1C (stereo not given), the Potency is reported as “inactive”. With O=C(CN1C(=O)NC(Cc2c[nH]c3ccccc23)C1=O)Nc1cccc(S(=O)(=O)N2CCCC2)c1 (stereo not given) the Potency was inconclusive [inhibitor, single point]. For CCc1ccc(C2C(C#N)=C(N)N(N3CCOCC3)C3=C2C(=O)CC(C)(C)C3)s1 (stereo not given), the Potency was inconclusive [inhibitor, single point]. In the case of O=C(Cn1c(=O)oc2ccccc21)N1CCCCC1, the Potency is reported as “inactive”. For Nc1c(C(=O)NCc2ccccc2)c2nc3ccccc3nc2n1CCCN1CCOCC1, the Potency was inconclusive [inhibitor, single point]. For NCc1cn(Cc2ccccc2)nc1-c1ccccc1, the Potency was active: 11.2 µM. In the case of CC(=NNC(=S)N1CCCCC1)c1ccccn1, the Potency is reported as active: 0.0259 µM. In the case of Cc1ccc(C2C3=C(CC(C)(C)CC3=O)N=C3c4ccccc4C(=O)C32)cc1 (stereo not given), the Potency is reported as inconclusive [inhibitor, single point]. For Cc1cc(OCC(O)CNC(C)c2ccccc2)ccc1C(C)C (stereo not given), the Potency was active: 23.1 µM. In the case of CCC(C(=O)NCCC(C)C)N(Cc1ccccc1Cl)C(=O)c1snc(C(N)=O)c1N (stereo not given), the Potency is reported as inconclusive [inhibitor, partial curve, poor fit]. With Cc1cc(C)c2c(N)c(C(=O)N3CCc4ccccc4C3)sc2n1 the Potency was inconclusive [inhibitor, single point]. With CCC1NC(=O)c2cc3ccccc3cc2-n2c1nc1cc(OC)c(OC)cc1c2=O (stereo not given) the Potency was inconclusive [inhibitor, single point]. For Cc1cccn2c(=O)c3cc(C(=O)NCCN4CCOCC4)c(=N)n(CCc4ccccc4)c3nc12, the Potency was inconclusive [inhibitor, single point]. In the case of Cc1cc(C)cc(NC(=S)Nc2ccc3cn[nH]c3c2)c1, the Potency is reported as “inactive”. With Cc1ccc(S(=O)(=O)N2CCN(C(=O)c3ccc(N4CCC(C)CC4)c([N+](=O)[O-])c3)CC2)cc1 the Potency was inconclusive [inhibitor, single point]. For CCN(CC)CCNC(=O)c1ccc(NC(=O)c2cn(-c3ccc(F)cc3)nc2-c2cccc(OC)c2)cc1, the Potency was inconclusive [inhibitor, single point]. In the case of O=C(NNc1ccccc1Cl)C(O)(c1cccc(C(F)(F)F)c1)c1cccc(C(F)(F)F)c1, the Potency is reported as inconclusive [inhibitor, single point]. With Cc1ccc(CCNC(=O)C2CCCN(S(=O)(=O)c3c(C)nn(C)c3C)C2)cc1 (stereo not given) the Potency was inconclusive [inhibitor, single point]. In the case of COC(=O)C1CCN(Cc2ccc3c(c2)CN(C(=O)c2ccnn2C)CCO3)CC1, the activity change, negative = growth inhibition is reported as inactive: 1.12% [at 9.04 µM]. For Cc1ccc(O)c(C(=O)/C=C/c2ccc3c(c2)OCCCO3)c1, the Potency was inconclusive [inhibitor, single point]. For O=C(c1ccc2c(c1)N(Cc1ccc(Cl)cc1)C(=O)c1ccccc1S2(=O)=O)N1CCCC1, the Potency was active: 20.6 µM. For CC(=O)Nc1cccc(-c2nc(-c3ccccc3)no2)c1, the Potency was inconclusive [inhibitor, single point]. In the case of CCCn1nnnc1NCc1ccccc1OCc1ccc(F)cc1, the Potency is reported as inconclusive [inhibitor, single point]. With CCOC(=O)c1ccc(N2C(=O)c3n[nH]c(-c4ccco4)c3C2c2ccc(C(=O)OC)cc2)cc1 (stereo not given) the Potency was active: 25.9 µM. In the case of N#CC1=C2SCN(Cc3ccccc3)CN2C(=O)CC1c1ccc2c(c1)OCO2 (stereo not given), the Potency is reported as inconclusive [inhibitor, single point]. With O=C1NC2(CCCCC2)OC12CCCCC2 the Potency was “inactive”. In the case of O=C(NCCCN1CCOCC1)c1ccc(CSCc2cccc(Cl)c2)o1, the Potency is reported as inconclusive [inhibitor, single point]. With CCCc1cnc2c(c1SCC(=O)NCc1ccc(C)cc1)c(=O)n(C)c(=O)n2C the Potency was “inactive”. In the case of COCCCNC(=O)c1sc2ncn(CC(=O)Nc3ccc(C)c(Cl)c3)c(=O)c2c1C, the Potency is reported as inconclusive [inhibitor, single point]. For Cn1c(=O)oc2cc(S(=O)(=O)NCCC(=O)NCc3ccccc3Cl)ccc21, the Potency was inconclusive [inhibitor, single point]. With CC(=O)c1cccc(-c2ccnc3c2CC(C(=O)NCc2ccncc2)O3)c1 (stereo not given) the Potency was inconclusive [inhibitor, single point]. With CCCCCCC(=O)Nc1ccc2nc3c(=O)n(C)c(=O)n(C)c3nc2c1C the Potency was “inactive”. In the case of Cc1ccc(NC(=O)Cc2nnc(SCC(=O)NC3=NCCS3)n2C)cc1, the Potency is reported as inconclusive [inhibitor, single point]. In the case of CCc1nc(CN(C)C(=O)C2CCC(=O)N(Cc3cccc(F)c3)C2)no1 (stereo not given), the Potency is reported as “inactive”. For CCn1ncc(N(C)N)c(Cl)c1=O, the Potency was “inactive”. For CC(C)c1ccc(S(=O)(=O)N2CCN(Cc3cccc(F)c3)CC2)cc1, the Potency was inconclusive [inhibitor, single point]. For COc1ccc(N(CC(=O)Nc2ccc3c(c2)OCO3)S(=O)(=O)c2ccc(F)cc2)cc1, the Potency was inconclusive [inhibitor, single point]. For CCCCOc1ccccc1C1CC(=O)Nc2ccc3ccccc3c21 (stereo not given), the Potency was active: 11.6 µM. In the case of CCCCn1c(NC(=O)c2ccccc2)nc2ccccc21, the Potency is reported as inconclusive [inhibitor, single point]. In the case of Nc1cc(N)nc(SCCOc2ccccc2)n1, the Potency is reported as inconclusive [inhibitor, partial curve]. With CCCc1[nH]n(-c2ccc([N+](=O)[O-])cc2)c(=O)c1C(C)=NCc1ccncc1 the Potency was inconclusive [inhibitor, single point]. For S=c1[nH]nc(-c2ccncc2)n1/N=C/C=C/c1ccccc1, the Potency was “inactive”. In the case of Cc1nnc(Cc2ccccc2)c2n[nH]c(C)c12, the Potency is reported as active: 0.731 µM. For Cc1ccc(NC(=O)NCCN2CCCCC2)cc1, the Potency was “inactive”. With O=C(NNc1cc(Cl)cc(Cl)c1)c1cccs1 the Potency was inconclusive [inhibitor, single point]. In the case of Cc1nc(N2CCOCC2)nc(N2CCCC2)c1[N+](=O)[O-], the Potency is reported as inconclusive [inhibitor, single point]. For NC(=O)c1ccc(-n2nnnc2SCC(=O)NC2CCCCC2)cc1, the Potency was “inactive”. In the case of COc1cc(OC)cc(C(=O)NC(=S)N2CCCCC2c2cccnc2)c1 (stereo not given), the activity change, negative = growth inhibition is reported as inconclusive: -30.4% [inhibitor]. In the case of CCOc1ccc(CNC(=O)c2oc3c(c2C)-c2nn(Cc4cccc(Cl)c4)cc2CC3)cc1, the Potency is reported as active: 18.4 µM. In the case of CC(=O)OCC(=O)[C@@]1(O)CCC2C3CCC4=CC(=O)CC[C@]4(C)C3[C@@H](O)C[C@@]21C (stereo not given in full), the Potency is reported as inconclusive [inhibitor, single point]. For CN1C(=O)CCC2(c3ccccc3)CC=C(O)C=C12 (stereo not given), the Potency was “inactive”. With Cc1cccc(C)c1N1CCN(C(=O)N2CCCCC2)CC1 the Potency was “inactive”. With Cc1sc(NC(=O)c2ccc(Br)s2)c(C(N)=O)c1C the Potency was inconclusive [inhibitor, single point]. With Cc1cccc(Cn2c(SCCN3CCOCC3)nc3c2c(=O)n(C)c(=O)n3C)c1 the Potency was “inactive”. In the case of CC1(C(=O)NS(=O)(=O)c2ccc(Cl)cc2)CCN1C(=O)C1(c2ccc(Cl)cc2)CCC1 (stereo not given), the Potency is reported as active: 20.6 µM. In the case of COc1ccc(-c2oc(=O)c3cc(OC)c(OC)cc3c2C(F)(F)F)cc1, the Potency is reported as “inactive”. In the case of CCOC(=O)c1ccc(NC(=S)N2CCN(CCNC3=CC(=O)CC(C)(C)C3)CC2)cc1, the Potency is reported as “inactive”. In the case of CCOc1ccc(-c2cccc(NS(=O)(=O)c3ccc(C)s3)c2)nn1, the Potency is reported as active: 23.1 µM. With CCCCN(CC)C(=O)CSc1nc2n[nH]c(C)c2c(=N)n1-c1ccc(CC)cc1 the Potency was active: 10.3 µM. With O=C1c2ccccc2C(=O)N1CCCCc1cn(C[C@H]2CC[C@H](Cn3cc(CCCCN4C(=O)c5ccccc5C4=O)nn3)O2)nn1 the Potency was inconclusive [inhibitor, single point]. For COC(=O)[C@H](Cc1ccccc1)NC(=O)/C=C/[C@H]1O[C@@H](n2ccc(=O)[nH]c2=O)[C@H](O)[C@@H]1O, the Potency was “inactive”. For CCOC(=O)c1cnc2ccc(C(=O)OC)cc2c1NCCN1CCOCC1, the Potency was inconclusive [inhibitor, single point]. For COc1ccc(NCC(=O)N/N=C/C(C)c2ccccc2)cc1 (stereo not given), the Potency was “inactive”. In the case of C[C@H](O)[C@@H]1C(=O)N2CCc3ccc(-c4ccccc4)cc3[C@@H]2C[C@@H]1N(C)C(=S)Nc1ccc(F)cc1, the Potency is reported as inconclusive [inhibitor, single point]. With O=[N+]([O-])c1cc(-c2cnc3ccccc3n2)ccc1Oc1ccc(F)cc1 the Potency was inconclusive [inhibitor, single point].
